Reference: the supplement of paper PMC4967469
Lines with a small IC50 respond at low doses; a fit beyond the top or the lowest dose is shown as a bound at that dose. For AUC the same curve is integrated over the 256-fold range of doses and scaled to a fraction; it is 1 without any effect and falls as sensitivity rises. For some assays here: An inferred top dose was calculated from the reported fits. For some assays here: An entry number marks a drug with two screens in the source, which often give different values.

Tests used:
Assay in all cases: Viability of human cancer cell lines after 72 h of drug (GDSC screen)
Tretinoin = compound: CC1=C(/C=C/C(C)=C/C=C/C(C)=C/C(=O)O)C(C)(C)CCC1 [Tretinoin]; conditions: top dose 10 µM; top dose inferred
Protocol: (§1)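 Human cancer cell lines in 384-well plates, medium with 10% serum, drug for 72 h over a 256-fold dose range (nine 2-fold or five 4-fold steps up to the top dose). Adherent lines were fixed and stained with the nucleic acid dye Syto60, suspension lines read with resazurin; signal relative to control wells, capped at 0 and 100%. One two-parameter sigmoid per drug and line, fitted in a mixed model over all curves with the slope shared within a line.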

GSK690693 = compound: CCn1c(-c2nonc2N)nc2c(C#CC(C)(C)O)ncc(OC[C@H]3CCCNC3)c21 [GSK690693]; conditions: top dose 10.24 µM; top dose inferred
Protocol: as §1

UNC0638 = compound: COc1cc2c(NC3CCN(C(C)C)CC3)nc(C3CCCCC3)nc2cc1OCCCN1CCCC1 [UNC0638]
Protocol: as §1

WH-4-023 = compound: COc1ccc(N(C(=O)Oc2c(C)cccc2C)c2ccnc(Nc3ccc(N4CCN(C)CC4)cc3)n2)c(OC)c1 [WH-4-023]; conditions: top dose 5.12 µM; top dose inferred
Protocol: as §1

SB-505124 = compound: Cc1cccc(-c2[nH]c(C(C)(C)C)nc2-c2ccc3c(c2)OCO3)n1 [SB-505124]; conditions: top dose 10 µM; top dose inferred
Protocol: as §1

BX-795 = compound: O=C(NCCCNc1nc(Nc2cccc(NC(=O)N3CCCC3)c2)ncc1I)c1cccs1 [BX-795]; conditions: top dose 5 µM; top dose inferred
Protocol: as §1

PI-103 = compound: Oc1cccc(-c2nc(N3CCOCC3)c3oc4ncccc4c3n2)c1 [PI-103]; conditions: top dose 10.24 µM
Protocol: as §1

[1] = top dose 20 µM, screen: GDSC drug entry 1236, top dose inferred
[2] = top dose 40 µM, screen: GDSC drug entry 245

Cell Line	AUC (Tretinoin)	IC50 (Tretinoin) [µM]	AUC (GSK690693)	IC50 (GSK690693) [µM]	AUC (UNC0638; [1])	IC50 (UNC0638; [1]) [µM]	AUC (UNC0638; [2])	IC50 (UNC0638; [2]) [µM]	AUC (WH-4-023)	IC50 (WH-4-023) [µM]	AUC (SB-505124)	IC50 (SB-505124) [µM]	AUC (BX-795)	IC50 (BX-795) [µM]	AUC (PI-103)	IC50 (PI-103) [µM]
P32-ISH (Burkitt lymphoma, suspension)	0.977	> 10	0.774	3.06	0.815	7.73	0.639	5.46	0.904	3.77	0.982	> 10	0.749	1.29	0.099	0.0558
PSN1 (pancreas, adherent)	0.96	> 10	0.981	> 10.2	0.811	8.6	0.606	4.64	0.851	3.01	0.991	> 10	0.846	2.82	0.527	0.748
QIMR-WIL (acute myeloid leukaemia, suspension)	0.956	> 10	0.799	4.76	0.795	8.97	0.715	9.9	0.907	> 5.12	0.975	> 10	0.877	4.77	0.136	0.0484
REH (B-cell leukaemia, suspension)	0.985	> 10	0.167	0.0657	0.781	7.94	0.495	2.43	0.973	> 5.12	0.961	> 10	0.88	4.86	0.171	0.0682
RF-48 (stomach, adherent)	0.957	> 10	0.797	5.49	0.984	> 20	0.628	5.9	0.959	> 5.12	0.979	> 10	0.958	> 5	0.377	0.28
RH-1 (rhabdomyosarcoma, adherent)	0.952	> 10	0.957	> 10.2	0.742	5.32	0.611	4.76	0.992	> 5.12	0.891	8.32	0.795	1.9	0.665	1.69
RKO (large intestine, adherent)	0.964	> 10	0.965	> 10.2	0.96	> 20	0.765	13.6	0.922	> 5.12	0.906	> 10	0.9	> 5	0.575	1.01
RL (B-cell lymphoma, suspension)	0.901	> 10	0.535	0.79	0.806	9.15	0.573	3.88	0.98	> 5.12	0.93	> 10	0.959	> 5	0.201	0.0919
ROS-50 (B-cell leukaemia, suspension)	0.952	> 10	0.983	> 10.2	0.851	> 20	0.601	5.11	0.961	> 5.12	0.981	> 10	0.977	> 5	0.615	1.45
RPMI-6666 (Hodgkin lymphoma, suspension)	0.907	> 10	0.669	2.1	0.769	9.11	0.61	5.34	0.732	1.7	0.965	> 10	0.881	> 5	0.172	0.0506
RPMI-8402 (T-cell lymphoblastic leukaemia, suspension)	0.986	> 10	0.283	0.175	0.667	3.34	0.462	2	0.924	> 5.12	0.965	> 10	0.718	1.14	0.149	0.0683
RPMI-8866 (chronic myeloid leukaemia, suspension)	0.726	2.6	0.988	> 10.2	0.794	8.5	0.641	5.95	0.988	> 5.12	0.809	4.77	0.785	1.98	0.669	1.82
RXF393 (kidney, adherent)	0.978	> 10	0.806	7.85	0.799	14.2	0.691	10.6	0.31	0.0756	0.924	> 10	0.854	> 5	0.407	0.323
Raji (Burkitt lymphoma, suspension)	0.98	> 10	0.989	> 10.2	0.766	6.92	0.732	10.9	0.98	> 5.12	0.973	> 10	0.979	> 5	0.805	4.78
Ramos-2G6-4C10 (Burkitt lymphoma, suspension)	0.875	7.44	0.961	> 10.2	0.816	9.13	0.716	9.15	0.93	> 5.12	0.957	> 10	0.733	1.28	0.259	0.148
SBC-1 (small cell lung carcinoma, suspension)	0.988	> 10	0.937	> 10.2	0.764	7.02	0.546	3.32	0.988	> 5.12	0.967	> 10	0.883	> 5	0.216	0.0978
SCH (stomach, adherent)	0.984	> 10	0.975	> 10.2	0.831	14	0.923	> 40	0.988	> 5.12	0.985	> 10	0.888	> 5	0.93	> 10.2
